For 59 molecules, Potency results are on record in PubChem BioAssay AID360 (National Center for Advancing Translational Sciences (NCATS), 2006).

Hit rate of the full screen: of about 48,000 compounds, about 550 (1.1%) were called active. Another 4% or so got no clear call; they are omitted. Rule as the data show it: active = potency below about 15 µM; inconclusive = mostly about 16 µM to 33 µM; inactive = weaker than that. Some of the results follow. Where only a bound is given, the exact number is not on record here.
Potency is read from the fitted curve at half-maximal effect.

This test addresses Lysosomal acid glucosylceramidase (Homo sapiens) (UniProt P04062). The test is described as follows: Glucocerebrosidase.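 Also: the screen sought inhibitors.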 As to conditions: purified enzyme, resorufin glucoside fluorescence (screen aimed at inhibitors), 20 min. Put shortly: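 Wild-type enzyme at 0.2 nM final in 50mM citric acid/KH2PO4, 10mM sodium taurocholate, 0.01% tween-20, pH 5.9, with resorufin beta-D-glucopyranoside at 30 uM final. Compounds titrated, 20 min at RT, red fluorescence read; AC50 from titration.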
Chain of UniProt P04062 (P04062 whole entry, looked up): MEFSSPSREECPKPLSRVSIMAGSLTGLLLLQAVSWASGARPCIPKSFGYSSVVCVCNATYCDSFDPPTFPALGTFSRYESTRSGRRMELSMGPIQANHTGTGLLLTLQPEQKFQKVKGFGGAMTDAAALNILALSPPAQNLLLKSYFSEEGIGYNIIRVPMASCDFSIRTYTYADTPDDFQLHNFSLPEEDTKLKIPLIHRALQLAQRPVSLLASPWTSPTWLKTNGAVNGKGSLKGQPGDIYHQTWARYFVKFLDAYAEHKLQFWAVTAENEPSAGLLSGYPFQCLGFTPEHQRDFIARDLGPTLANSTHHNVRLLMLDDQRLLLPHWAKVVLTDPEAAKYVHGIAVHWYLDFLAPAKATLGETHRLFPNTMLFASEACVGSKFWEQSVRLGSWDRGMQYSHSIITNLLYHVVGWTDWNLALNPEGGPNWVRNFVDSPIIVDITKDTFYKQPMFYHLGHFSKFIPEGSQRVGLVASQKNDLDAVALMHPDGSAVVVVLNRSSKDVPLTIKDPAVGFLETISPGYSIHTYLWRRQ
As to `CC(=O)N1C(=O)N(C)C2C1N(C)C(=O)N2C(C)=O` (centres undefined), the Potency was inactive: > 76.9 µM.
In the case of `Cc1nc2ncnn2c(N2CCC(C(=O)NC3CCCC3)CC2)c1Cc1ccccc1` it was inactive: > 76.9 µM; in that of `C=CCn1c2ccccc2c2nnc(SCC(=O)NC(C(=O)OC)C(C)C)nc21` (centres undefined), inactive: > 76.9 µM.
In the case of `CC(NC(=O)C1CC2CCCC(C1)C2=O)c1ccccc1` (centres undefined) it was inactive: > 76.9 µM; in that of `Cc1cc(C(=O)CSc2nnc(N)s2)c(C)n1CCc1ccc(F)cc1`, inactive: > 76.9 µM.
The same measure for `CC(=O)c1cn(CC(=O)NCC2CCCO2)c2ccccc12` (centres undefined): inactive: > 76.9 µM; for `CC1CCCCN1S(=O)(=O)c1ccc2c(c1)oc(=O)n2CC(=O)O` (centres undefined): inactive: > 76.9 µM; for `CCOC(=O)c1c(NC(=O)CSc2nnc(-c3cccnc3)o2)sc(C(C)=O)c1C`: inactive: > 76.9 µM.
For `CN(C1CCCCC1)S(=O)(=O)c1ccccc1`, the Potency was inactive: > 76.9 µM.
In the case of `Cc1ccc(-c2nnc3ccc(SCC(=O)N4CCCCC4)nn23)cc1` it was inactive: > 76.9 µM; in that of `Cc1nnc2n1NC(c1ccc(Cl)cc1)C(C(=O)N1CCC(C)CC1)S2` (centres undefined), inactive: > 76.9 µM.
In the case of `CC(=O)OC(Cn1nc(C)cc1C)c1ccccc1` (centres undefined) it was inactive: > 76.9 µM.
On to `Cc1ccc(-c2noc(CCC(=O)Nc3cc(C)ccn3)n2)cc1`, for which the Potency was inactive: > 76.9 µM.
In the case of `Cc1c(C#N)c2ncn(CCCN(C)C)c(=O)c2n1-c1ccccc1` it was inactive: > 76.9 µM; in that of `CCn1ncc(C(=O)Nc2ccc(S(=O)(=O)N3CCCC3)cc2)c1C`, inactive: > 76.9 µM.
In the case of `Clc1ss/c(=N\c2ccccn2)c1Cl` it was inactive: > 76.9 µM.
Regarding `Cn1c(=O)c2ncn(CC(=O)NCCOc3ccccc3)c2n(C)c1=O`, the Potency was inactive: > 76.9 µM.
`CCOc1ccc2cc(C#N)c(SCC(=O)N3CCCC3)nc2c1`: the Potency was inactive: > 76.9 µM.
The same measure for `CCNc1nc(N2CCOCC2)nc(N(c2ccccc2)c2ccccc2)n1`: inactive: > 76.9 µM; for `CC1(C)CC(=O)C2=C(C1)N(CC1CCCO1)C(=O)C2(NC(=O)c1cccnc1)C(F)(F)F` (centres undefined): inactive: > 76.9 µM; for `Cc1cc(C(F)(F)F)nc(SCC(=O)NC2CC3CCC2C3)n1` (centres undefined): inactive: > 76.9 µM.
The same measure for `CCOC(=O)C1CCN(Cc2ccccc2C(F)(F)F)CC1`: “inactive”.
In the case of `CCn1c(Cn2nnc(-c3ccccc3)n2)nnc1SCC(=O)Nc1ccc(N(C)C)cc1` it was “inactive”; in that of `O=C1CC(N2CCN(S(=O)(=O)c3ccc(Cl)cc3)CC2)C(=O)N1CCc1ccccc1` (centres undefined), inactive: > 76.9 µM.
For `COc1cccc(OCCCCN2CCCCC2)c1`, the Potency is inactive: > 76.9 µM.
In the case of `CCCN1Cc2cccc(C(=O)NCc3ccccc3)c2C1=O` it was inactive: > 76.9 µM.
Take `Cn1c(=O)c2c(nc(CN3CCc4ccccc4C3)n2Cc2ccccc2)n(C)c1=O`: the Potency was inactive: > 76.9 µM.
The same measure for `O=C(NCCC1=CCCCC1)C1COc2ccccc2O1` (centres undefined): inactive: > 76.9 µM; for `CCOC(=O)CSc1nc2ccccc2c(=O)n1Cc1ccco1`: inactive: > 76.9 µM; for `N#Cc1nc(-c2ccccc2F)oc1NCc1cccc2c1OCO2`: inactive: > 76.9 µM.
With `COCCN(CCOC)Cc1cc(=O)oc2cc3c(cc12)CCC3`, the Potency is inactive: > 76.9 µM.
As to `CSCC[C@H](NC(=O)OC(C)(C)C)c1nnc(SCc2ccccc2)o1`, the Potency entry was “inactive”.
The same measure for `CC(C(=O)Nc1ccccn1)N1C(=O)C2C3C=CC(C3)C2C1=O` (centres undefined): inactive: > 76.9 µM; for `O=C(Nc1nnc(C2CC2)s1)c1cccc(S(=O)(=O)N2CCc3ccccc32)c1`: inactive: > 76.9 µM.
`CN(Cc1ccccc1)Cc1nc2c(c(=O)n(C)c(=O)n2C)n1Cc1ccccc1Cl`: the Potency is inactive: > 76.9 µM.
The same measure for `CCC(=O)N1c2ccccc2[C@@H](N(C(C)=O)c2ccccc2)C[C@H]1C`: inactive: > 76.9 µM; for `COc1cc(C)nc(N2CCCC(C(=O)Nc3cccc(Cl)c3Cl)C2)n1` (centres undefined): inactive: > 76.9 µM.
In the case of `O=C(c1cc(-c2ccncc2)nc2ccccc12)N1CCN(c2ccc(N3CCOCC3)nn2)CC1` it was inactive: > 76.9 µM; in that of `CC(Sc1nnc(C2CCCCC2)n1N)C(=O)NCc1ccc2c(c1)OCO2` (centres undefined), inactive: > 76.9 µM.
The same measure for `COc1cc(C)nc(OCCNC(=O)COc2ccc(Cl)cc2C)n1`: inactive: > 76.9 µM; for `Cc1cc(=O)c2n(Cc3ccc(Cl)cc3)nc[n+]2[nH]1`: inactive: > 76.9 µM.
As to `COc1ccc(C(N)CCc2ccco2)cc1` (centres undefined), the Potency is inactive: > 76.9 µM.
The same measure for `Cc1ccccc1-n1c(-c2cccnc2)n[nH]c1=S`: inactive: > 76.9 µM; for `Cn1nccc1C(=O)c1ccc(Cl)cc1`: inactive: > 76.9 µM.
With `CCOc1ccc(OCc2ccc(C(=O)NCc3ccncc3)o2)cc1`, the Potency was inactive: > 76.9 µM.
In the case of `COc1cc(NC(=O)C2CCCO2)c(OC)cc1NC(=O)c1ccccc1` (centres undefined) it was inactive: > 76.9 µM; in that of `Cc1ncc2c(c1OC(=O)c1ccccc1)COC(C)(C)OC2`, inactive: > 76.9 µM.
With `CS(=O)(=O)NC1c2cccc3cccc(c23)C1Sc1nncn1/N=C/c1ccco1` (centres undefined), the Potency is inactive: > 76.9 µM.
`COc1cc(C)nc(N2CCC(C(N)=O)CC2)n1`: the Potency was inactive: > 76.9 µM.
In the case of `COc1cccc(C2=NOC(C(=O)Nc3cccc(C(C)=O)c3)C2)c1OC` (centres undefined) it was inactive: > 76.9 µM.
The same measure for `COc1cc(NS(=O)(=O)c2ccc(OC)c(C)c2C)c(OC)cc1Cl`: inactive: > 76.9 µM.
Consider `COc1ccccc1NC(=O)c1ccc(S(=O)(=O)N2CCOCC2)cc1`, for which the Potency is inactive: > 76.9 µM.
On to `O=C(CSc1nc2ncccc2[nH]1)Nc1ccc2c(c1)OCCO2`, for which the Potency is inactive: > 76.9 µM.
The same measure for `CCOC(=O)c1cc2sc(C)cc2n1CC(=O)Nc1cccc(C)c1C`: inactive: > 76.9 µM; for `COc1cc(NC(=O)CSc2nnnn2-c2ccccc2)cc(OC)c1OC`: inactive: > 76.9 µM.
In the case of `CC1(C)OC(=O)C(=CNc2ccccc2F)C(=O)O1` it was inactive: > 76.9 µM.
The same measure for `Cn1c(=N)n(CC(O)c2cccc3ccccc23)c2ccccc21` (centres undefined): “inactive”.
With `Cc1ccc(NC(=O)N2CCC(C(N)=O)CC2)cc1`, the Potency was inactive: > 76.9 µM.
Regarding `COc1cccc(C2CC(c3ccccc3Cl)n3ncnc3N2)c1` (centres undefined), the Potency was inactive: > 76.9 µM.
